# Experimental data: the supplement of paper PMC8728848
# The list shows a part of the results.
# B1: CPA (Cicer arietinum) (protein)
# chain: MAFSYLNLVLVTLTTLFFLQTTKVKSQKSVSFHITNFTISRPSITLQGTAEFLPNVLLLNDIEHPVFVVGRALYSKPITLWNNKTGKVASFVTSFTFDVQDLKKTVPGHGLVFFLAPSGSEIPFSSDGGNLGVVDGKNAFNRFVGVEFDNFVNSWDPKYSHVGINVNSLISTKTVKWNRVSGELVKVSIVYDSVSTTLTVIVTYKNGQISILSQLVDLKAVLPDTVNIGFSASTTLVSPRQLHNIHSWSFTSTFET
# Key:
# Experiment in all cases: glycan array binding signal (z-score within array); higher = stronger binding
# Settings in all cases: glycan notation: IUPAC condensed, linker removed
# [1] = target: Fuc(a1-3)[GalNAc(b1-4)]GlcNAc
# Outline: (§1)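 Columns mapping to the same glycan were averaged after glycan names were converted to IUPAC-condensed notation. The data come from 3228 arrays in the Consortium for Functional Glycomics database, limited to those with an available protein sequence. Binding is reported as a within-array Z-score averaged across arrays of one protein sequence and across linkers.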
# [2] = target: Fuc(a1-3)[GalNAc(b1-4)]GlcNAc6S
# Outline: as §1
# Fuc(a1-4)GlcNAc = target: Fuc(a1-4)GlcNAc
# Outline: as §1
# Fuc(b1-3)GlcNAc = target: Fuc(b1-3)GlcNAc
# Outline: as §1
# Gal(a1-2)Gal = target: Gal(a1-2)Gal
# Outline: as §1
# Gal(a1-3)Gal = target: Gal(a1-3)Gal
# Outline: as §1
# Gal(a1-3)Gal(b1-3)GlcNAc = target: Gal(a1-3)Gal(b1-3)GlcNAc
# Outline: as §1
# [3] = target: Gal(a1-3)Gal(b1-3)GlcNAc(b1-2)Man
# Outline: as §1
# [4] = target: Gal(a1-3)Gal(b1-3)GlcNAc(b1-2)Man(a1-3)[Gal(a1-3)Gal(b1-3)GlcNAc(b1-2)Man(a1-6)]Man(b1-4)GlcNAc(b1-4)GlcNAc
# Outline: as §1
# [5] = target: Gal(a1-3)Gal(b1-3)GlcNAc(b1-3)GalNAc
# Outline: as §1
# [6] = target: Gal(a1-3)Gal(b1-3)GlcNAc(b1-6)GalNAc
# Outline: as §1
# [7] = target: Gal(a1-3)Gal(b1-3)[Fuc(a1-4)]GlcNAc(b1-2)Man(a1-3)[Gal(a1-3)Gal(b1-3)[Fuc(a1-4)]GlcNAc(b1-2)Man(a1-6)]Man(b1-4)GlcNAc(b1-4)GlcNAc
# Outline: as §1
# Gal(a1-3)Gal(b1-4)Glc = target: Gal(a1-3)Gal(b1-4)Glc
# Outline: as §1
# Gal(a1-3)Gal(b1-4)GlcNAc = target: Gal(a1-3)Gal(b1-4)GlcNAc
# Outline: as §1
# [8] = target: Gal(a1-3)Gal(b1-4)GlcNAc(b1-2)Man
# Outline: as §1
# [9] = target: Gal(a1-3)Gal(b1-4)GlcNAc(b1-2)Man(a1-3)[Gal(a1-3)Gal(b1-4)GlcNAc(b1-2)Man(a1-6)]Man(b1-4)GlcNAc(b1-4)GlcNAc
# Outline: as §1
# [10] = target: Gal(a1-3)Gal(b1-4)GlcNAc(b1-3)GalNAc
# Outline: as §1
# [11] = target: Gal(a1-3)Gal(b1-4)GlcNAc(b1-6)GalNAc
# Outline: as §1
# [12] = target: Gal(a1-3)Gal(b1-4)[Fuc(a1-3)]GlcNAc
# Outline: as §1
# [13] = target: Gal(a1-3)Gal(b1-4)[Fuc(a1-3)]GlcNAc(b1-2)Man(a1-3)[Gal(a1-3)Gal(b1-4)[Fuc(a1-3)]GlcNAc(b1-2)Man(a1-6)]Man(b1-4)GlcNAc(b1-4)GlcNAc
# Outline: as §1
# Gal(a1-3)GalNAc = target: Gal(a1-3)GalNAc
# Outline: as §1
# [14] = target: Gal(a1-3)[Gal(a1-4)]Gal(b1-4)GlcNAc
# Outline: as §1
# [15] = target: Gal(a1-4)Gal(b1-3)GlcNAc(b1-2)Man(a1-3)[Gal(a1-4)Gal(b1-3)GlcNAc(b1-2)Man(a1-6)]Man(b1-4)GlcNAc(b1-4)GlcNAc
# Outline: as §1
# Gal(a1-4)Gal(b1-4)Glc = target: Gal(a1-4)Gal(b1-4)Glc
# Outline: as §1
# Gal(a1-4)Gal(b1-4)GlcNAc = target: Gal(a1-4)Gal(b1-4)GlcNAc
# Outline: as §1
# [16] = target: Gal(a1-4)Gal(b1-4)GlcNAc(b1-2)Man(a1-3)[Gal(a1-4)Gal(b1-4)GlcNAc(b1-2)Man(a1-6)]Man(b1-4)GlcNAc(b1-4)GlcNAc
# Outline: as §1
# [17] = target: Gal(a1-4)Gal(b1-4)GlcNAc(b1-3)Gal(b1-4)Glc
# Outline: as §1
# Gal(a1-4)GlcNAc = target: Gal(a1-4)GlcNAc
# Outline: as §1
# Gal(a1-6)Glc = target: Gal(a1-6)Glc
# Outline: as §1
# Gal(b1-2)Gal = target: Gal(b1-2)Gal
# Outline: as §1
# Gal(b1-3)Gal = target: Gal(b1-3)Gal
# Outline: as §1
# Gal(b1-3)Gal(b1-4)GlcNAc = target: Gal(b1-3)Gal(b1-4)GlcNAc
# Outline: as §1
# Gal(b1-3)GalNAc = target: Gal(b1-3)GalNAc
# Outline: as §1
# [18] = target: Gal(b1-3)GalNAc(a1-3)[Fuc(a1-2)]Gal(b1-4)Glc
# Outline: as §1
# [19] = target: Gal(b1-3)GalNAc(a1-3)[Fuc(a1-2)]Gal(b1-4)GlcNAc
# Outline: as §1
# Gal(b1-3)GalNAc(b1-3)Gal = target: Gal(b1-3)GalNAc(b1-3)Gal
# Outline: as §1
# [20] = target: Gal(b1-3)GalNAc(b1-3)Gal(a1-4)Gal(b1-4)Glc
# Outline: as §1
binder,measurement,setting,value
B1,glycan array binding signal (z-score),[1],0.399
same,glycan array binding signal (z-score),[2],-0.635
same,glycan array binding signal (z-score),Fuc(a1-4)GlcNAc,-0.386
same,glycan array binding signal (z-score),Fuc(b1-3)GlcNAc,-0.329
same,glycan array binding signal (z-score),Gal(a1-2)Gal,-0.045
same,glycan array binding signal (z-score),Gal(a1-3)Gal,-0.652
same,glycan array binding signal (z-score),Gal(a1-3)Gal(b1-3)GlcNAc,0.134
same,glycan array binding signal (z-score),[3],-0.562
same,glycan array binding signal (z-score),[4],1.36
same,glycan array binding signal (z-score),[5],0.618
same,glycan array binding signal (z-score),[6],-0.42
same,glycan array binding signal (z-score),[7],0.177
same,glycan array binding signal (z-score),Gal(a1-3)Gal(b1-4)Glc,0.092
same,glycan array binding signal (z-score),Gal(a1-3)Gal(b1-4)GlcNAc,-0.497
same,glycan array binding signal (z-score),[8],-0.354
same,glycan array binding signal (z-score),[9],0.169
same,glycan array binding signal (z-score),[10],0.211
same,glycan array binding signal (z-score),[11],-0.23
same,glycan array binding signal (z-score),[12],0.094
same,glycan array binding signal (z-score),[13],0.913
same,glycan array binding signal (z-score),Gal(a1-3)GalNAc,-0.121
same,glycan array binding signal (z-score),[14],2.44
same,glycan array binding signal (z-score),[15],-0.307
same,glycan array binding signal (z-score),Gal(a1-4)Gal(b1-4)Glc,0.019
same,glycan array binding signal (z-score),Gal(a1-4)Gal(b1-4)GlcNAc,0.774
same,glycan array binding signal (z-score),[16],-0.333
same,glycan array binding signal (z-score),[17],-0.689
same,glycan array binding signal (z-score),Gal(a1-4)GlcNAc,-0.019
same,glycan array binding signal (z-score),Gal(a1-6)Glc,-0.457
same,glycan array binding signal (z-score),Gal(b1-2)Gal,-0.481
same,glycan array binding signal (z-score),Gal(b1-3)Gal,-0.314
same,glycan array binding signal (z-score),Gal(b1-3)Gal(b1-4)GlcNAc,-0.367
same,glycan array binding signal (z-score),Gal(b1-3)GalNAc,-0.456
same,glycan array binding signal (z-score),[18],-0.568
same,glycan array binding signal (z-score),[19],-0.368
same,glycan array binding signal (z-score),Gal(b1-3)GalNAc(b1-3)Gal,2.92
same,glycan array binding signal (z-score),[20],-0.436
